Reference: US20240218032A1 (NAVIGO PROTEINS, published 2024)
Values belong to the binder of their own block, whether it stands above or below them.

Legend:
hPD-L1-Fc [1] = target: T1, hPD-L1-Fc (human, UniProt Q9NZQ7 19-238); test: SPR (Biacore 3000), PD-L1-Fc immobilized on CM5, Langmuir 1:1
T1 construct: A bought IgG1-Fc fusion (R&D 156-B7) was used for the selection; also called hPD-L1-Fc1; hPD-L1-Fc (203395); not shown: Fc part

human PD-L1 on cells [2] = target: T2, human PD-L1 on cells (human, UniProt Q9NZQ7 19-290); test: flow cytometry, H460 cells (native hPD-L1), 1 µM Affilin
T2 construct: whole, on cells; also called hPD-L1; HEK293-hPD-L1-cells

human PD-L1 on cells [3] = target: T2, human PD-L1 on cells; test: flow cytometry, HEK293-hPD-L1 overexpressing cells, 1 µM Affilin
hPD-1 = target: T3, hPD-1 (human, UniProt Q15116 25-167, limits assumed); test: SPR (Biacore), hPD-1 immobilised on a CM5 chip, 211883 injected alone
T3 construct: Soluble protein used in SPR, immobilized or injected at 1 µM; also called human PD-1

human PD-L1 on cells [4] = target: T2, human PD-L1 on cells; test: flow cytometry titration on PD-L1 overexpressing HEK293 cells; 24h mouse serum
human PD-L1 on cells [5] = target: T2, human PD-L1 on cells; test: flow cytometry titration on PD-L1 overexpressing HEK293 cells; curve '24h mouse serum' (triangles, after 24 h at 37°C in mouse serum)
human PD-L1 on cells [6] = target: T2, human PD-L1 on cells; test: flow cytometry titration on PD-L1 overexpressing HEK293 cells; curve '0h mouse serum' (circles, control without 24 h incubation)
human PD-L1 on cells [7] = target: T2, human PD-L1 on cells; test: flow cytometry titration on PD-L1 overexpressing HEK293 cells; 0h mouse serum
human PD-L1 on cells [8] = target: T2, human PD-L1 on cells; test: flow cytometry titration on PD-L1 overexpressing HEK293 cells after 24 h at 37° C. in human serum; after 24 h at 37° C. in human serum
human PD-L1 on cells [9] = target: T2, human PD-L1 on cells; test: flow cytometry titration on PD-L1 overexpressing HEK293 cells; curve '24h human serum' (triangles, after 24 h at 37°C in human serum)
human PD-L1 on cells [10] = target: T2, human PD-L1 on cells; test: flow cytometry titration on PD-L1 overexpressing HEK293 cells; 24h human serum
human PD-L1 on cells [11] = target: T2, human PD-L1 on cells; test: flow cytometry titration on PD-L1 overexpressing HEK293 cells; 0h human serum
human PD-L1 on cells [12] = target: T2, human PD-L1 on cells; test: flow cytometry titration on PD-L1 overexpressing HEK293 cells; curve '0h human serum' (circles, control without 24 h incubation)
hPD-L1-Fc [13] = target: T1, hPD-L1-Fc; test: SPR (Biacore), PD-L1 immobilized on CM-5 chip, 1:1 Langmuir fit (FIG. 3)

B2: Affilin® 211883 (designed binder)
chain: MQIFVKTLTGKTITLAVKPNDTILKVKVWIEIKEGIPPDQQRLIWAGKQLEDGRTLSDYNIQKESTLHLVLRLRAA
notes: Ubiquitin mutein modified in the alpha-helical region
Kd (hPD-L1-Fc [1]): 91 nM
binding result (hPD-1): no binding (tested: 1 µM)

B5: Affilin® 215192 (designed binder)
chain: MQIFVKTLTGKTITLAVKPNDTILKVKVWIEIKEGIPPDQQRLIWAGKQLEDGRTLSDYNIQKESTLHLVLRLRAAGGGGSGGGGSGGGGSGGGGSMQIFVKTLTGKTITLAVKPNDTILKVKVWIEIKEGIPPDQQRLIWAGKQLEDGRTLSDYNIQKESTLHLVLRLRAA
Kd (hPD-L1-Fc [1]): 8 nM

B6: Affilin® 215258 (designed binder)
chain: MQIFVVTEEDKVITLEVEPSDTIENVKAKIQDKEGIPPDQQMLHWSGKQLEDGRTLSDYNIFDAKILLLHLILRAA
notes: Ubiquitin mutein; Detected via Strep-Tag in flow cytometry; also called CID 215258
Kd (hPD-L1-Fc [1]): 100 nM
flow cytometry cell binding signal at 1 µM (read-out not named) (human PD-L1 on cells [2]): 3.98
flow cytometry cell binding signal at 1 µM (read-out not named) (human PD-L1 on cells [3]): 289

B7: Affilin® 211904 (designed binder)
chain: MQIFVKTLTVLEMGKTITLEVEPSDTIENVKAKIQDKEGIPPDQQRLIWAGKQLEDGRTLSDYNIHSFPMLELLLTLRAA
notes: Ubiquitin mutein with an insertion between positions 9 and 10; Detected via Strep-Tag in flow cytometry
Kd (hPD-L1-Fc [13]): 3.6 nM
Kd (hPD-L1-Fc [1]): 4 nM
flow cytometry cell binding signal at 1 µM (read-out not named) (human PD-L1 on cells [2]): 18
flow cytometry cell binding signal at 1 µM (read-out not named) (human PD-L1 on cells [3]): 41

Continued by falling Kd (hPD-L1-Fc [1]), values first:

Kd (hPD-L1-Fc [1]): 220 nM
B4: Affilin® 211960 (designed binder)
chain: MQIFVQTDTGKTITLEVEPSDTIENVKAKIQDKEGIPPDQQRLIWAGKQLEDGRTLSDYNIGIVAPLHLVLRLRAAMQIFVFTWTGKTITLEVEPSDTIENVKAKIQDKEGIPPDQQRLIWAGKQLEDGRTLSDYNIGNGWMLHLVLRLRAA

Kd (hPD-L1-Fc [1]): 15 nM
flow cytometry cell binding signal at 1 µM (read-out not named) (human PD-L1 on cells [2]): 6.1
flow cytometry cell binding signal at 1 µM (read-out not named) (human PD-L1 on cells [3]): 95.3
B1: Affilin® 211620 (designed binder)
chain: MQIFVWTIITKRITLEVEPSDTIENVKAKIQDKEGIPPDQQHLVWEGKQLEDGRTLSDYNIEKYDYLFLNLHLRAA
notes: Ubiquitin mutein; Detected via Strep-Tag in flow cytometry

Kd (hPD-L1-Fc [1]): 11 nM
B8: Affilin® 215306 (designed binder)
chain: MQIFVKTLTEQAQEHGKTITLEVEPSDTIENVKAKIQDKEGIPPDQQRLIWAGKQLEDGRTLSDYNIPYWWPLFLFLGLRAA
notes: Ubiquitin mutein with an insertion between positions 9 and 10; also called CID 215306

Kd (hPD-L1-Fc [1]): 0.096 nM
EC50 (read off the curve) (human PD-L1 on cells [4]): ~1 nM
Kd (human PD-L1 on cells [5]): 1.15 nM
Kd (human PD-L1 on cells [6]): 0.67 nM
EC50 (read off the curve) (human PD-L1 on cells [7]): ~0.7 nM
Kd (human PD-L1 on cells [8]): 0.4 nM
Kd (human PD-L1 on cells [9]): 0.48 nM
EC50 (read off the curve) (human PD-L1 on cells [10]): ~0.5 nM
EC50 (read off the curve) (human PD-L1 on cells [11]): ~0.5 nM
Kd (human PD-L1 on cells [12]): 0.5 nM
B3: Affilin® 215220 (designed binder)
chain: MQIFVKTLTFKIIPAGKTITLEVEPSDTIENVKAKIQDKEGIPPDQQRLIWAGKQLEDGRTLSDYNIDWPAMLTLSLPLRAA
notes: Ubiquitin mutein with an insertion between positions 9 and 10; Detected via Strep-Tag in flow cytometry; also called CID 215220
